Test results reported in US20060135770A1, “PARP inhibitors” (Kudos Pharmaceuticals Ltd., priority 2004, published 2006).

Target: Mammalian PARP, isolated from Hela cell nuclear extract (Homo sapiens, UniProt P09874)
Experiment: PARP inhibition FlashPlate assay (3H-NAD incorporation, scintillation counting)
Assay type: biochemical
Conditions: PARP enzyme activity; NAD 5 μM; 30° C.; read-out: IC50
Description: In order to assess the inhibitory action of the compounds, the following assay was used to determine IC50 values or percentage inhibition at a given concentration.
The total assay volume per well was 40 μl.
After 10 minutes incubation at 30° C. the reactions were initiated by the addition of a 10 μl reaction mixture, containing NAD (5 μM), ^3H-NAD and 30mer double stranded DNA-oligos. Designated positive and negative reaction wells were done in combination with compound wells (unknowns) in order to calculate % enzyme activities. The plates were then shaken for 2 minutes and incubated at 30° C. for 45 minutes.
Following the incubation, the reactions were quenched by the addition of 50 μl 30% acetic acid to each well. The plates were then shaken for 1 hour at room temperature.
The plates were transferred to a TopCount NXT (TRADE MARK) (Packard, UK) for scintillation counting. Values recorded are counts per minute (cpm) following a 30 second counting of each well.
The % enzyme activity for each compound is then calculated using the following equation: [formula] […] Such IC50 values are used as comparative values to identify increased compound potencies.

SMILES	IC50
N#Cc1cccc(NC(=O)N2CCN(C(=O)c3cc(COc4ccc(F)cc4C(N)=O)ccc3F)CC2)c1 [Compound 212]	< 0.1 µM
CCCCCCCCNC(=O)N1CCN(C(=O)c2cc(COc3ccc(F)cc3C(N)=O)ccc2F)CC1 [Compound 213]	< 0.1 µM
NC(=O)c1cc(F)ccc1OCc1ccc(F)c(C(=O)N2CCN(C(=O)Nc3ccccc3F)CC2)c1 [Compound 214]	< 0.1 µM
NC(=O)c1cc(F)ccc1OCc1ccc(F)c(C(=O)N2CCN(C(=O)C3CCCCC3)CC2)c1 [Compound 217]	< 0.1 µM
